The whole screen tested about 3,200 compounds, of which about 110 (3.4%) showed an effect of 50% or more. The list shows a part of the results.
tested on: T1, V. cholerae SAD30; set-up: species or system S. aureus MSSA476 (TSB) or V. cholerae SAD30 (LB); 384-well bacterial growth screen at 25 uM, OD600 relative to DMSO control; details: relative growth, OD600, LB; 25 µM; inhibitor
T1 construct: SAD30

Structure (SMILES) | % of control remaining [%]
CC(=O)Nc1ccc(C=C(C#N)C(=O)Nc2c(C)cc(C)cc2C)cc1 [8-M13, 2-cyano-3-(4-acetamidophenyl)-N-(2,4,6-trimethylphenyl)prop-2-enamide] | 75.2549
CC(Cl)C(=O)Nc1cccc(CSc2ccccn2)c1 (stereo not drawn) [5-B18, 2-chloro-N-{3-[(pyridin-2-ylsulfanyl)methyl]phenyl}propanamide] | 74.141
N#CC(=Cc1c2ccccc2c(Cl)c2ccccc12)C(N)=O [8-N12, 3-(10-chloroanthracen-9-yl)-2-cyanoprop-2-enamide] | 53.637
CC(c1cnn(C)c1)N(C)C(=O)CCl (stereo not drawn) [5-M04, 2-chloro-N-methyl-N-[1-(1-methyl-1H-pyrazol-4-yl)ethyl]acetamide] | 106.252
N#CC(=CN1CCN(c2ccccc2)CC1)C(=O)Nc1ccc(F)cc1 [8-C20, 2-cyano-N-(4-fluorophenyl)-3-(4-phenylpiperazin-1-yl)prop-2-enamide] | 75.3909
C=CC(=O)N(C)C1CCN(c2cnccn2)CC1 [1-B12, N-methyl-N-[1-(pyrazin-2-yl)piperidin-4-yl]prop-2-enamide] | 122.424
Cc1ccccc1NC(=O)C(C#N)=Cc1cccc2ccccc12 [8-H09, 2-cyano-N-(2-methylphenyl)-3-(naphthalen-1-yl)prop-2-enamide] | 74.1672
O=C(CCl)Nc1ccc(Cl)cc1[N+](=O)[O-] [5-N08, 2-chloro-N-(4-chloro-2-nitrophenyl)acetamide] | 89.9443
O=C(CCl)N(Cc1ccc(F)cc1)C1CCCCC1 [4-I13, 2-chloro-N-cyclohexyl-N-[(4-fluorophenyl)methyl]acetamide] | 92.3011
C=CC(=O)NCC(OC)C1CCOC1 (stereo not drawn) [3-L19, N-[2-methoxy-2-(oxolan-3-yl)ethyl]prop-2-enamide] | 92.619
CC(=O)NCc1ccc(C(=O)CCl)o1 [10-I10, N-{[5-(2-chloroacetyl)furan-2-yl]methyl}acetamide] | 118.761
O=C(CCl)c1cnc(N2CCCCC2)s1 [10-L17, 2-chloro-1-[2-(piperidin-1-yl)-1,3-thiazol-5-yl]ethan-1-one] | 110.189
Cc1nnnn1-c1ccc(F)c(NC(=O)CCl)c1 [6-E13, 2-chloro-N-[2-fluoro-5-(5-methyl-1H-1,2,3,4-tetrazol-1-yl)phenyl]acetamide] | 89.1838
Cc1ccc(C2CS(=O)(=O)CCN2C(=O)C(C)Cl)o1 (stereo not drawn) [6-D19, 4-(2-chloropropanoyl)-3-(5-methylfuran-2-yl)-1lambda6-thiomorpholine-1,1-dione] | 84.6336
C=CC(=O)NC(CO)c1nc(C)no1 (stereo not drawn) [1-C05, N-[2-hydroxy-1-(3-methyl-1,2,4-oxadiazol-5-yl)ethyl]prop-2-enamide] | 80.2691
CC1(C)C(=O)Nc2ccc(C(=O)CCl)cc21 [10-N21, 5-(2-chloroacetyl)-3,3-dimethyl-2,3-dihydro-1H-indol-2-one] | 35.0672
C=CC(=O)N1CCCC(C2CCN(C(=O)c3cc(C)nn3C)CC2)C1 (stereo not drawn) [1-P22, 1-[1'-(1,3-dimethyl-1H-pyrazole-5-carbonyl)-[3,4'-bipiperidin]-1-yl]prop-2-en-1-one] | 110.893
C=CC(=O)NC1CCOCC1 [2-G17, N-(oxan-4-yl)prop-2-enamide] | 90.3503
CC(Cl)C(=O)Nc1cc(F)ccc1F (stereo not drawn) [6-A09, 2-chloro-N-(2,5-difluorophenyl)propanamide] | 93.734
COC1CCC(N(Cc2cc(C)oc2C)C(=O)CCl)CC1 (stereo not drawn) [5-O20, 2-chloro-N-[(2,5-dimethylfuran-3-yl)methyl]-N-(4-methoxycyclohexyl)acetamide] | 94.8198
CCc1ccc(NC(=O)C(C#N)=Cc2cccnc2)cc1 [8-G04, 2-cyano-N-(4-ethylphenyl)-3-(pyridin-3-yl)prop-2-enamide] | 83.8205
C=CC(=O)N(C)Cc1ccncc1 [1-N21, N-methyl-N-[(pyridin-4-yl)methyl]prop-2-enamide] | 89.5366
C=CC(=O)N(C)CC(=O)N1CCCC1c1nc(C)no1 (stereo not drawn) [2-M04, N-methyl-N-{2-[2-(3-methyl-1,2,4-oxadiazol-5-yl)pyrrolidin-1-yl]-2-oxoethyl}prop-2-enamide] | 95.1365
O=C(CCl)Cc1c(F)cccc1Cl [10-D20, 1-chloro-3-(2-chloro-6-fluorophenyl)propan-2-one] | 36.1582
Cc1noc(C2CN(C(=O)C(C)Cl)C2)n1 (stereo not drawn) [7-G04, 2-chloro-1-[3-(3-methyl-1,2,4-oxadiazol-5-yl)azetidin-1-yl]propan-1-one] | 93.3091
C[C@H]1CN(C(=O)CCl)Cc2cccn21 [5-B03, 2-chloro-1-[(4S)-4-methyl-1H,2H,3H,4H-pyrrolo[1,2-a]pyrazin-2-yl]ethan-1-one] | 107.429
CCCn1c(C)cc(C=C(C#N)C(=O)Nc2cccc(C#N)c2)c1C [8-N19, 2-cyano-N-(3-cyanophenyl)-3-(2,5-dimethyl-1-propyl-1H-pyrrol-3-yl)prop-2-enamide] | 77.8382
Cc1cccc(N(Cc2c(C3CC3)cnn2C)C(=O)CCl)c1 [5-D07, 2-chloro-N-[(4-cyclopropyl-1-methyl-1H-pyrazol-5-yl)methyl]-N-(3-methylphenyl)acetamide] | 101.545
CCc1ccc(C=C(C#N)C(=O)Nc2cc(C)c(Cl)cc2OC)cc1 [8-G11, N-(4-chloro-2-methoxy-5-methylphenyl)-2-cyano-3-(4-ethylphenyl)prop-2-enamide] | 68.4568
CN(C)C(=O)c1cc2n(n1)CC1(CCN(C(=O)CCl)CC1)OC2 [5-K11, 1-(2-chloroacetyl)-N,N-dimethyl-4',7'-dihydrospiro[piperidine-4,6'-pyrazolo[3,2-c][1,4]oxazine]-2'-carboxamide] | 97.5097

Reference: PMC11995724, “Antibiotic target discovery by integrated phenotypic and activity-based profiling of electrophilic fragments” (Cell chemical biology, 2025)
